PubChem BioAssay AID1240 (Sanford-Burnham Center for Chemical Genomics, 2008)
Among all 50,000 compounds or so, about 800 (1.6%) showed an effect of 50% or more. This is one part of the list.

Target: Bcl-2-like protein 10 (Homo sapiens) (UniProt Q9HD36)
Experiment: TR3 peptide-Bcl-B binding displacers, biochemical primary FP assay, phenotype converters (AID 1240);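 further: 0% = Bcl-B with tracer peptide and DMSO and 100% = tracer peptide lacking Bcl-B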
Details: GST-Bcl-B / FITC-TR3 peptide fluorescence polarization; stronger effect = higher value; compound at 3.75 mg/L

Sequence of UniProt Q9HD36 (Q9HD36 whole entry, looked up): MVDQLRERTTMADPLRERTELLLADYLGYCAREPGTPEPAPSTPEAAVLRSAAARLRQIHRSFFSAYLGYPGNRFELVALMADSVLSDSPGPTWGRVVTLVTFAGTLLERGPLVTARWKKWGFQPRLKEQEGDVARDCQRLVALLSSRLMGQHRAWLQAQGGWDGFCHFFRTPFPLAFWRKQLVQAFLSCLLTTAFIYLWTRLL

SMILES	displacement [%]
COCCNC(=O)C(=O)NCCc1ccccc1	16.4
COC(=O)c1cc(C(=O)NCc2ccc(OC)cc2)cc([N+](=O)[O-])c1	12.9
COc1ccc(C(C)NC(=O)c2ccc(C(C)(C)C)cc2)cc1 (centres undefined)	-4.4
COc1ccc(N(CC(=O)Nc2cccc(Br)c2)S(=O)(=O)c2ccc(C)cc2)cc1	5
CCOC(=O)CNC(=O)c1cc([N+](=O)[O-])ccc1Cl	14.5
O=C(Nc1ccc2c(c1)oc1ccccc12)c1cc2ccccc2o1	2.4
COc1ccc(S(=O)(=O)Nc2ccc([N+](=O)[O-])cc2)cc1	0.5
CCOC(=O)C1=C(c2ccccc2)NC(=O)NC1c1ccc(CC)cc1 (centres undefined)	-12.8
O=C1NN(c2ccc(I)cc2)C(=O)/C1=C\c1ccc(O)cc1O	20.4
COc1ccc(-c2cc(C(F)(F)F)n3nc(-c4ccccc4)cc3n2)cc1	-14.9
COc1cccc(N2C(=O)NC(=O)C(=Cc3ccc(O)cc3)C2=O)c1	5.3
O=S(=O)(Cc1ccc(Cl)cc1)CC(O)COCc1ccccc1 (centres undefined)	-0.3
CCCCOc1ccc(C(=O)O/N=C(/c2ccncc2)c2ccc([N+](=O)[O-])cc2)cc1	10.5
Cc1ccc2c(c1)C(C)(c1ccccc1)CC(C)(C)N2C(=O)CN1C(=O)C2CCCCC2C1=O (centres undefined)	3.9
COC(=O)COc1ccc(C=C2C(=O)NC(=S)NC2=O)cc1OC	8.3
Cc1cc(C)n(C(=O)c2cc(F)c(F)cc2Cl)n1	13.9
CC(=O)Oc1ccc(-c2cccc(C(=O)NC(C)(C)C)c2)cc1	11.7
CCc1ccccc1NC(=O)c1c(NC(=O)c2ccccc2Br)sc2c1CCC2	-4.1
Cc1ccc(C(=O)COc2cc(OCC(=O)c3ccc(C)cc3)c3c(C)cc(=O)oc3c2)cc1	10
C1CCC(N2CCC(N3CCCCC3)CC2)CC1	-6.5
CCCCOc1ccc(/C=C2\SC(=S)N(C(C)C(=O)O)C2=O)cc1OC (centres undefined)	3.8
Cc1ccc(N/C(N)=N/c2nc(C(F)(F)F)cc(=O)[nH]2)cc1	4.4
COc1cc(NC(=O)COc2ccccc2C)cc([N+](=O)[O-])c1	9

SMILES	displacement [%]
COc1cc(C=C2C(=O)NC(=O)NC2=O)ccc1OS(=O)(=O)c1ccc([N+](=O)[O-])cc1	10.1
O=[N+]([O-])c1cccc(/C=N/N2CCN(c3ccccn3)CC2)c1	0.1
Cc1cc(C=C2C(=O)c3ccccc3C2=O)c(C)n1-c1cccc([N+](=O)[O-])c1	11.8
COc1ccc(C)cc1NC(=O)c1ccc([N+](=O)[O-])c(C)c1	-5.8
CC(C)(C)NC(=O)/C(=C\c1cccs1)NC(=O)c1ccccc1	12.7
O=C(CCc1ccccc1)N1CCN(c2nc3ccc([N+](=O)[O-])cc3s2)CC1	17.9
Cc1cc(C)n(C(=O)c2ccc(Cl)c([N+](=O)[O-])c2)n1	3.1
COc1ccc(/C=N/c2oc(C)c(C)c2C#N)cc1	7.9
O=C1c2ccccc2-c2ccc(S(=O)(=O)N3CCOCC3)cc21	-18
O=C1ON=C(c2ccccc2)/C1=C/c1cccnc1	-9.2
CCCOc1cccc(C2Nc3ccccc3NC3=C2C(=O)CC(C)(C)C3)c1 (centres undefined)	10.8
O=C(Oc1cccc2ccccc12)c1ccc(Cl)cc1Cl	13.5
Cc1ccc(S(=O)(=O)Nc2ccc(S(=O)(=O)N3CCOCC3)cc2)cc1[N+](=O)[O-]	7.8
COc1ccc(/C=C/C(=O)O)cc1S(=O)(=O)Nc1cccc(C(=O)O)c1	3.4
CN(C)c1ccc(N2C(=O)C=CC2=O)cc1	8.9
Cc1c(C(=O)NS(=O)(=O)c2ccccc2Cl)c(=O)n(-c2ccccc2)n1C	8.6
COc1ccc(C(=O)Nc2cc3oc4ccccc4c3cc2OC)c(OC)c1	-5.8
Cc1ccc(S(=O)(=O)CCSc2cccc(C(=O)O)c2)cc1	-5.9
Cc1ccc(CC2S/C(=N\N=C\c3ccc(O)cc3)NC2=O)cc1 (centres undefined)	-10.2
N#CC1=C(N)Oc2n[nH]c(-c3ccccc3)c2C1CCc1ccccc1 (centres undefined)	-10.4
O=C(O)C1C2C=CC(O2)C1C(=O)N1CCN(C(c2ccccc2)c2ccccc2)CC1 (centres undefined)	-3.2
CC(=O)n1nc(C)c2c1CC(C)(C)CC2=O	-0.9
O=C(CN(c1cccc([N+](=O)[O-])c1)S(=O)(=O)c1ccccc1)NCC1CCCO1 (centres undefined)	-4.4

SMILES	displacement [%]
CCOc1ccccc1NC(=O)C(=O)NCc1ccc(F)cc1	10.2
O=C(Nc1ccc(Cl)c(C(F)(F)F)c1)c1ccc(Cl)c([N+](=O)[O-])c1	15.9
Cc1ccc(S(=O)(=O)NNC(=O)c2c[nH]c3ccccc23)cc1	-0.3
O=C1c2ccccc2/C(=N/N=C/c2ccccc2)C1C(=O)C(c1ccccc1)c1ccccc1 (centres undefined)	5.1
CCN(CC)CCCOc1ccc(I)cc1	2.6
Cc1ccc(N2C(=O)CC(NCc3ccc(F)cc3)C2=O)cc1 (centres undefined)	2.8
Ic1ccc(-c2csc(Nc3ccc(Oc4ccccc4)cc3)n2)cc1	-8.2
O=[N+]([O-])c1ccc(/C=N/Nc2ccccn2)o1	0.6
CN1CCN(CC(O)COc2ccc(C(C)(C)C)cc2)CC1 (centres undefined)	-4.7
O=C(O)c1c(F)c(F)c(F)c(F)c1-c1ccc(Cl)cc1	11.8
COc1ccc(CNC(=O)CN(Cc2ccccc2)S(=O)(=O)c2ccccc2)cc1	4.5
C=CCCC(=O)Nc1ccc(Br)cn1	-2.3
O=C(/C=C/c1ccc(-c2ccccc2)o1)c1ccco1	1.1
O=C(c1ccc(S(=O)(=O)N2CCOCC2)cc1)N1CCCc2ccccc21	28
CC(/C=C/c1ccccc1)=N\N=C1/NC(=O)CS1	-10.9
COc1ccc(/C=N/NC(=O)CSCC(=O)Nc2ccccc2)cc1OC	-2.7
O=C1N=c2ccccc2=C1c1sc(Nc2cccc(O)c2)nc1O	26.1
COc1cccc(NC(=S)NC(NC(=O)Cc2ccccc2)C(Cl)(Cl)Cl)c1 (centres undefined)	-6.2
Cc1cc(/C=N/O)c(C)n1-c1ccccc1	11.4
CC(NC(=O)NC(=O)c1cccc([N+](=O)[O-])c1)C1CC1 (centres undefined)	7.6
CC(C)(C)c1ccccc1OCC(O)CN1CCN(Cc2ccccc2)CC1 (centres undefined)	-5.3
O=[N+]([O-])c1ccc(/C=N\Nc2ccccc2[N+](=O)[O-])o1	-14.2
C=CCN1C(=O)/C(=C\c2ccc(OCC(=O)O)cc2)C(=O)NC1=S	0.1
